“And” between values parts separate entries of the source, which are not always exact repeats. Equal entries are not always repeated. The campaign covered roughly 420,000 compounds. About 50,000 (12%) were called active. The inconclusive results got no clear call from the source; some entries with a clear call stand among them for comparison. The call rests on the fitted dose curve; in most records, active means well fitted inhibition curve with a large enough effect; inconclusive means small, poorly fitted or top-dose-only effect; inactive means flat fitted curve, though single readings scatter. No potency is given beside an inconclusive call; the fits are too rough. The source holds several records for some structures; these can differ, active in one and inactive in another.
assay: qHTS for Inhibitors of human tyrosyl-DNA phosphodiesterase 1 (TDP1): qHTS in cells in presence of CPT; settings: chicken DT40 Tdp1-/-;hTDP1 cells + 20 nM CPT, ATP luminescence, 48 h; activity change, negative = growth inhibition: at 46.2 µM (top of the series) unless noted; further: nearly all actives have a fitted effect of over 55% in size
Procedure, shortened: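 Chicken DT40 Tdp1-/- cells complemented with human TDP1, 400 cells/well, exposed to compounds plus 20 nM camptothecin for at least 48 h at 37 C; viability read as ATP content by CellTiter-Glo luminescence.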
On the % scale 0 is the no-effect control and ±100 the full control effect; potency means the concentration at half of the fitted maximal effect; tags describe the fitted curve by direction and shape.

Question: With `Fc1ccc(-c2noc3ncnc(Nc4ccc(F)cc4F)c23)cc1` as the compound, how does the Potency read?
Answer: inconclusive [inhibitor, single point]

Question: With `O=C(CC1N=C2c3ccccc3N=C(SCc3ccc(F)cc3)N2C1=O)NC1CCCCC1` (stereo not drawn) as the compound, how does the Potency read?
Answer: inconclusive [inhibitor, single point]

Question: For `COc1cc(C(C)=O)ccc1O`, which “activity change, negative = growth inhibition” value is on record?
Answer: inactive: -0.591%

Question: With `CCc1cccc(C)c1Nc1c(-c2ccc(SC)cc2)nc2sccn12` as the compound, how does the Potency read?
Answer: inconclusive [inhibitor, single point]

Question: With `CCC(=O)Nc1nc(C)c(-c2csc(Nc3cccc(O)c3)n2)s1` as the compound, how does the Potency read?
Answer: active: 6.51 µM

Question: Which Potency does the source give for `COc1ccc(S(=O)(=O)c2c(Nc3c(C)cccc3C)sc(C(=O)c3ccc(F)cc3)c2N)cc1` here?
Answer: active: 5.8 µM

Question: Which Potency does the source give for `Cc1ccc(CNc2nc3ccc(Cl)cc3n3cnnc23)cc1` here?
Answer: inconclusive [inhibitor, single point]

Question: With `CCCn1cc2c(c1-c1ccc(C)cc1)c(=O)n(C)c(=O)n2C` as the compound, how does the Potency read?
Answer: inconclusive [inhibitor, single point]

Question: With `COC(=O)COc1ccc2oc(=O)cc(-c3cc4cccc(OC)c4o3)c2c1` as the compound, how does the “activity change, negative = growth inhibition” value read?
Answer: inactive: -23.9%

Question: Which Potency does the source give for `COC(=O)[C@@]12CCCCN1[C@H](c1ccc(SC3CCCCC3)c(OC)c1)[C@@H]1C(=O)N(C)C(=O)[C@@H]12` here?
Answer: inconclusive [inhibitor, single point]

Question: Which “activity change, negative = growth inhibition” value does the source give for `CC[C@](C)(O)c1cc2ccccc2c(=O)o1` here?
Answer: inactive: -10.6%

Question: For `N#Cc1c(N)nc2c(c1-c1ccncc1)CCCCC2`, which Potency is on record?
Answer: inconclusive [inhibitor, single point]

Question: With `CCCSc1nc(N2CCOCC2)c2c(c1C#N)CC(C)(C)SC2` as the compound, how does the Potency read?
Answer: inconclusive [inhibitor, single point]

Question: With `Cc1cccc(-c2nc(CCNC(=O)COc3ccccc3)cs2)c1` as the compound, how does the Potency read?
Answer: inconclusive [inhibitor, single point]

Question: For `O=C(CSc1ccc(-c2cccs2)nn1)Nc1ccccc1`, which Potency is on record?
Answer: inactive and active: 13 µM

Question: For `Cc1ccc2c(C)c(C(=O)NCC(C)(C)N3CCOCC3)oc2c1C`, which Potency is on record?
Answer: inconclusive [inhibitor, single point]

Question: For `COC(=O)[C@@]12C[C@@H](CC(=O)NCc3cccs3)C(=O)N(Cc3ccccc3)C1=CCC(C)(C)C2`, which Potency is on record?
Answer: inconclusive [inhibitor, single point]

Question: With `COc1ccc(S(=O)(=O)N(CC(=O)NCc2cccnc2)C2CCCCC2)cc1OC` as the compound, how does the Potency read?
Answer: inconclusive [inhibitor, single point]

Question: For `Cc1cccc(NC(=O)CSc2ncc(-c3ccc(Br)cc3)[nH]2)c1`, which Potency is on record?
Answer: active: 23.1 µM

Question: For `COC(=O)C1Cc2c([nH]c3ccccc23)CN1C(C)=O` (stereo not drawn), which “activity change, negative = growth inhibition” value is on record?
Answer: inactive: 1.01%

Question: Which “activity change, negative = growth inhibition” value does the source give for `CC(C)C(=O)Nc1cc(S(=O)(=O)N2CCOCC2)ccc1N1CCCCC1` here?
Answer: inactive: 1.19%

Question: Which “activity change, negative = growth inhibition” value does the source give for `COc1ccc(CCNC(=O)Cn2nnc(-c3ccc(Cl)cc3)n2)cc1OC` here?
Answer: inactive: 8.16%

Question: For `O=C(NNc1ncnc2c1cnn2-c1cccc(Cl)c1)c1ccco1`, which “activity change, negative = growth inhibition” value is on record?
Answer: inactive: -19.5%

Question: For `Cc1ccc(CN(Cc2ccco2)C(=O)c2ccc(Cl)cc2Cl)cc1`, which Potency is on record?
Answer: inconclusive [inhibitor, single point]

Question: With `COC(=O)[C@@]12CCCN1[C@H](c1ccc(-c3ccc(F)cc3)c(OC)c1)[C@H]1C(=O)N(C)C(=O)[C@H]12` as the compound, how does the Potency read?
Answer: inconclusive [inhibitor, single point]

Question: With `COc1ccc(C#Cc2cnc3c(c2)C(=O)N([C@H](C)CO)C[C@H](C)[C@@H](CN(C)C(=O)Nc2cccc(OC)c2)O3)cc1` as the compound, how does the Potency read?
Answer: inconclusive [inhibitor, single point]

Question: For `COc1ccc(NC(=O)C2(C)CCN2C(=O)Cc2ccccc2)cc1OC` (stereo not drawn), which Potency is on record?
Answer: inconclusive [inhibitor, single point]

Question: With `Cc1nn2c(N3CCOCC3)c3c(nc2c1-c1ccccc1)CCCC3` as the compound, how does the Potency read?
Answer: inconclusive [inhibitor, single point]

Question: With `COc1cc(C(=S)N2CCOCC2)ccc1OS(=O)(=O)c1ccc(C)cc1` as the compound, how does the Potency read?
Answer: inconclusive [inhibitor, single point]

Question: For `COc1cccc(CNc2nc3ccccc3c3nc(-c4cccc(C)c4)nn23)c1`, which Potency is on record?
Answer: inconclusive [inhibitor, partial curve]

Question: With `CO/N=C(/CS(=O)(=O)Cc1ccccc1Cl)c1ccc(Cl)cc1Cl` as the compound, how does the “activity change, negative = growth inhibition” value read?
Answer: inactive: -23.2%

Question: For `Cc1nc(CS(=O)(=O)c2ccc(Cl)cc2)cc(Sc2ccccc2Cl)n1`, which Potency is on record?
Answer: inconclusive [inhibitor, single point]

Question: Which Potency does the source give for `CN1N/C(=C\c2ccccc2)N=C2C(=O)N(C)C(=O)N=C21` here?
Answer: active: 1.41 µM

Question: For `CN(Cc1nc2ccccc2c(=O)[nH]1)C(=O)c1cccc(S(=O)(=O)N2CCc3ccccc32)c1`, which Potency is on record?
Answer: inconclusive [inhibitor, single point]

Question: Which Potency does the source give for `COc1ccc(Cn2nnnc2C(c2ccccn2)N2CCN(c3cc(Cl)ccc3C)CC2)cc1` (stereo not drawn) here?
Answer: active: 29.1 µM

Question: With `Cc1onc(NC(=O)c2ccc(Cl)cc2Cl)c1Br` as the compound, how does the Potency read?
Answer: inconclusive [inhibitor, single point]

Question: With `Cc1oc(-c2cccc(NC(=O)c3ccccc3)c2)nc1CNC(=O)c1cnc2ccccn2c1=O` as the compound, how does the “activity change, negative = growth inhibition” value read?
Answer: inactive: 2.06%

Question: With `CCSc1ccccc1C(=O)Nc1nc2ccccc2c(=O)[nH]1` as the compound, how does the Potency read?
Answer: inconclusive [inhibitor, single point]

Question: For `COc1cc(Cl)c(C)cc1NCC(=O)Nc1cccc(S(=O)(=O)N2CCCC2)c1`, which Potency is on record?
Answer: inconclusive [inhibitor, single point]

Question: With `COC(=O)c1ccc(NC(=O)CN2CCCN(Cc3ccc(Cl)cc3)S2(=O)=O)cc1` as the compound, how does the Potency read?
Answer: inconclusive [inhibitor, single point]

Question: Which Potency does the source give for `COc1cc(C)c(C)cc1S(=O)(=O)n1c(C)nc2ccccc21` here?
Answer: inconclusive [inhibitor, single point]

Question: For `CC(C)C[C@@H](CN1CCC[C@@H]1CN1C(=O)C(=O)NC[C@@H]1Cc1ccccc1)N1C[C@H](Cc2ccc(O)cc2)N(CCc2ccccc2)C(=O)C1=O`, which Potency is on record?
Answer: inconclusive [inhibitor, single point]

Question: Which Potency does the source give for `Cc1ccc(S(=O)(=O)C[C@@H]2OC[C@H](C(C)C)N2S(=O)(=O)c2ccc(C)cc2)cc1` here?
Answer: active: 18.4 µM

From PubChem BioAssay AID686979 (National Center for Advancing Translational Sciences (NCATS), 2013)
